Measurements from PubChem BioAssay AID488969 (Vanderbilt High Throughput Screening Facility, 2010).
In all, about 110,000 compounds were measured (“z-score”: median about -0.1, highest 2% from about 2 on). This is one part of the list.

Biological target: Metabotropic glutamate receptor 8 (Rattus norvegicus) (UniProt P70579)
Test: mGluR8 Gi/Go-coupled signaling modulation – cell-based, rat, thallium flux, HTS, primary screen (AID 488969)
Settings: HEK293 rat mGluR8, GIRK (G protein-gated inwardly rectifying potassium channel) thallium flux, FluoZin2; at 10 µM; stronger effect = higher value; submaximal glutamate (EC20) added with thallium

UniProt P70579, sequence (P70579 whole entry, looked up): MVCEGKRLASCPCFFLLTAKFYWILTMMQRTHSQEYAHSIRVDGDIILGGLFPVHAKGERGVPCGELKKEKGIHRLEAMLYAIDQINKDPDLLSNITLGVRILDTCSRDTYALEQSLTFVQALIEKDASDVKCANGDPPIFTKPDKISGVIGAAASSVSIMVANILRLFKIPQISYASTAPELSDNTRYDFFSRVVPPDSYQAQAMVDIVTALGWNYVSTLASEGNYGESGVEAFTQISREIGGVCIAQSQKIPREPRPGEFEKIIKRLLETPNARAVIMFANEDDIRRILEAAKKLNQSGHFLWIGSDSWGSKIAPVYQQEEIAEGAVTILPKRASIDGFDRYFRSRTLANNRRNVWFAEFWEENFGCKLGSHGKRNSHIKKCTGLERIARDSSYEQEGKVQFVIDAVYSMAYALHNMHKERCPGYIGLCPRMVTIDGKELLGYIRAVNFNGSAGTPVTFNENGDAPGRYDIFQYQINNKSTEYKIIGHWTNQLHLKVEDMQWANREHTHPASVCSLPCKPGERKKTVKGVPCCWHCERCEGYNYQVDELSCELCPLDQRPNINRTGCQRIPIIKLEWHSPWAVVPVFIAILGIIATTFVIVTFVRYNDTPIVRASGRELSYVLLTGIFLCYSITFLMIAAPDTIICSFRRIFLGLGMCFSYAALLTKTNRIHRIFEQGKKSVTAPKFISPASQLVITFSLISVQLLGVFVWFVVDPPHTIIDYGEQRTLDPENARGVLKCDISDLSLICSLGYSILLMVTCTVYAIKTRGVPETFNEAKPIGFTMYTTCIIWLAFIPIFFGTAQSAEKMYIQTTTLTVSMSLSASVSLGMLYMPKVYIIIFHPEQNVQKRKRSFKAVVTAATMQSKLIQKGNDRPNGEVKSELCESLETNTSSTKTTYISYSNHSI

**Q.** How did the z-score turn out when `CN(C)c1ccnc(Oc2ccc(C(C)(C)C)cc2)c1C#N` was run?
**A.** The z-score was -0.212.

**Q.** How did the z-score turn out when `CC(=O)C1=NN(c2ccccc2)C(c2cccs2)N1c1ccccc1` (stereo not given) was run?
**A.** Its z-score is -0.909.

**Q.** How did the z-score turn out when `CCCCc1c(O)nc(SCC(=O)N2CCCCC2)n(-c2ccccc2C)c1=O` was run?
**A.** Its z-score is -0.736.

**Q.** With `CC(C)(C)C(=O)NC(=C(Cl)Cl)P(=O)(O)O` as the molecule, how does the z-score read?
**A.** The z-score was -0.239.

**Q.** `COc1ccc(CNC(=O)C2CSC(=O)C2)cc1` (stereo not given) was tested. Which z-score did it give?
**A.** Its z-score is -0.333.

**Q.** With `C=CCN1C(=O)CSc2ccc(C(=O)NCCC3=CCCCC3)cc21` as the molecule, how does the z-score read?
**A.** The z-score was -0.609.

**Q.** `CCCCCCCCCC(=O)N/N=C/c1ccc(C)s1` was tested. Which z-score did it give?
**A.** Its z-score is -0.109.

**Q.** For `CCC(CC)C(=O)Nc1cc(C(=O)NCCc2ccccc2)ccc1Cl`, which z-score is on record?
**A.** The z-score was 0.201.

**Q.** How did the z-score turn out when `Cc1ccc(-c2nn(-c3ccccc3)cc2/C=N/NS(=O)(=O)c2ccccc2)cc1` was run?
**A.** The z-score was -0.324.

**Q.** Which z-score does the source give for `CC(=O)NC(=O)NC1CSCC1OC(C)=O` (stereo not given) here?
**A.** Its z-score is 0.477.

**Q.** Which z-score does the source give for `Cc1c(C(c2cc3c(cc2Br)OCO3)c2c(C)n(C)n(-c3ccccc3)c2=O)c(=O)n(-c2ccccc2)n1C` here?
**A.** Its z-score is -0.323.

**Q.** How did the z-score turn out when `COc1ccc(C(CC(=O)O)NC(=O)OC(C)(C)C)cc1` (stereo not given) was run?
**A.** Its z-score is -0.0119.

**Q.** How did the z-score turn out when `COCc1cc(=O)n2[nH]c(C(F)(F)F)nc2n1` was run?
**A.** The z-score was -0.0087.

**Q.** With `Cc1cc(C)n(CC(O)CN(c2ccccc2)S(=O)(=O)c2ccc3ccccc3c2)n1` (stereo not given) as the molecule, how does the z-score read?
**A.** The z-score was -0.224.

**Q.** How did the z-score turn out when `CCOC(=O)C(CCC(=O)O)(CCC(C)C)c1csc(N)n1` (stereo not given) was run?
**A.** Its z-score is 0.133.

**Q.** With `O=C(Nc1ccc2c(c1)C(=O)N(CC1CCCO1)C2=O)c1ccc(Cl)c(Cl)c1` (stereo not given) as the molecule, how does the z-score read?
**A.** The z-score was -0.194.

**Q.** `O=C(NNc1c2ccccc2nc2ccccc12)c1ccc(O)cc1` was tested. Which z-score did it give?
**A.** The z-score was 2.21.

**Q.** `COc1ccccc1OCc1ccc(C(=O)N2N=C(C(F)F)CC2(O)C(F)F)o1` (stereo not given) was tested. Which z-score did it give?
**A.** The z-score was -0.554.

**Q.** With `Cc1ccccc1N1C(S)=C(C#N)C(=O)NC12CCCCC2` as the molecule, how does the z-score read?
**A.** Its z-score is 1.53.

**Q.** `Cc1ccc(C)c(N/C=C(\C#N)c2nc3ccccc3o2)c1` was tested. Which z-score did it give?
**A.** Its z-score is 0.0427.

**Q.** `O=C(Cc1ccccc1)Nc1ccccc1C(=O)O` was tested. Which z-score did it give?
**A.** Its z-score is -1.27.

**Q.** `COc1ccc(C(=O)Cn2c(Br)nc3c2c(=O)n(C)c(=O)n3C)cc1OC` was tested. Which z-score did it give?
**A.** Its z-score is -0.137.

**Q.** How did the z-score turn out when `Cc1ccc2c(c1)c1c(n2CC(O)CN2C(=O)CNC2=O)C(=O)CCC1` (stereo not given) was run?
**A.** Its z-score is 0.0317.

**Q.** `COc1ccc(C)cc1S(=O)(=O)N(CC(=O)O)c1ccccc1` was tested. Which z-score did it give?
**A.** The z-score was 0.0223.

**Q.** How did the z-score turn out when `O=C(c1noc2c1CCCC2)N1CCN(Cc2ccccc2)CC1` was run?
**A.** Its z-score is -0.175.

**Q.** How did the z-score turn out when `Cn1c(SCC(=O)N2CCN(c3ccccc3)CC2)nnc1-c1c[nH]c2ccccc12` was run?
**A.** Its z-score is -0.513.

**Q.** Which z-score does the source give for `CC1(C)CC(=O)C(/C=N/c2ccccn2)=C(O)C1` here?
**A.** Its z-score is 0.439.

**Q.** With `CCCOc1ccc2ccccc2c1/C=N/n1cnnc1` as the molecule, how does the z-score read?
**A.** Its z-score is -0.492.

**Q.** Which z-score does the source give for `CCOC(=O)C1=C(C)N=C2c3ccccc3C(=O)C2C1c1ccc(Cl)cc1` (stereo not given) here?
**A.** Its z-score is 0.0824.

**Q.** Which z-score does the source give for `Cc1ccccc1-c1nnc(SCc2ccccc2F)o1` here?
**A.** The z-score was -0.891.

**Q.** How did the z-score turn out when `COC(=O)c1cc2ccsc2n1Cc1nc(-c2ccc(Cl)cc2)oc1C` was run?
**A.** The z-score was 0.126.

**Q.** With `O=C(NCCCN1CCc2ccccc2C1)Nc1ccc(Cl)cc1` as the molecule, how does the z-score read?
**A.** The z-score was 0.384.

**Q.** `Cc1cccc(OCC(=O)Nc2cccc3nsnc23)c1` was tested. Which z-score did it give?
**A.** Its z-score is 0.0699.

**Q.** `CC1(C)Cc2ccccc2-c2c1c(=O)n(-c1ccccc1)c1nnnn21` was tested. Which z-score did it give?
**A.** The z-score was 0.232.

**Q.** How did the z-score turn out when `CCCCCn1c(N2CCN(Cc3ccccc3)CC2)nc2c1c(=O)[nH]c(=O)n2C` was run?
**A.** The z-score was -0.284.

**Q.** For `Cc1[nH]c2ccccc2c1Cc1n[nH]c(=S)o1`, which z-score is on record?
**A.** The z-score was -0.396.

**Q.** For `CSCCC(NC(=O)c1c(C)oc2c1CCCC2)C(=O)O` (stereo not given), which z-score is on record?
**A.** Its z-score is -0.103.

**Q.** How did the z-score turn out when `CCOC(=O)C1C(=O)CC(C)(O)C(C(=O)OCC)C1c1ccc(OC)cc1` (stereo not given) was run?
**A.** Its z-score is -0.0838.

**Q.** `CCCC1(C(=O)OCC)NC(c2ccc(OC)cc2OC)C2C(=O)N(c3ccccc3)C(=O)C21` (stereo not given) was tested. Which z-score did it give?
**A.** Its z-score is 0.102.

**Q.** With `Cc1cc(/C=N\NC(=O)CC(=O)NC2CCCCC2)c(C)n1-c1cccc(Cl)c1Cl` as the molecule, how does the z-score read?
**A.** The z-score was -0.438.

**Q.** `COc1ccccc1NC(=O)CCC(=O)O` was tested. Which z-score did it give?
**A.** Its z-score is 0.083.

**Q.** For `CCOC(=O)c1cccc(NC(=O)c2cncc(Br)c2)c1`, which z-score is on record?
**A.** Its z-score is -0.526.

**Q.** With `Cc1cccc(NC(=O)c2ccc(-n3ccnc3)nc2)c1` as the molecule, how does the z-score read?
**A.** Its z-score is -0.175.

**Q.** How did the z-score turn out when `CC(=O)NC1=NN(C(C)=O)C(C)(c2ccc(C)cc2)S1` (stereo not given) was run?
**A.** Its z-score is -0.042.

**Q.** How did the z-score turn out when `O=C(COC(=O)CCCOc1ccc(Cl)cc1Cl)NCc1ccc(F)cc1` was run?
**A.** The z-score was -0.191.

**Q.** With `CCOc1ccc(NC(=O)c2oc3ccccc3c2NC(=O)CC)cc1` as the molecule, how does the z-score read?
**A.** Its z-score is 0.0261.

**Q.** Which z-score does the source give for `Nc1ncnc2nc(SCC(=O)N3CCN(c4ccccc4)CC3)[nH]c12` here?
**A.** The z-score was -0.237.

**Q.** Which z-score does the source give for `COc1ccccc1OCCCCOc1ccccc1C(C)=O` here?
**A.** The z-score was -0.231.

**Q.** With `CN1CCN(c2cc(N3CCc4ccccc4C3)c(F)cc2[N+](=O)[O-])CC1` as the molecule, how does the z-score read?
**A.** Its z-score is 0.456.

**Q.** Which z-score does the source give for `O=C(c1ccccc1)c1c[nH]c2cc3c(cc2c1=O)OCO3` here?
**A.** The z-score was -0.0651.

**Q.** Which z-score does the source give for `CCc1ccc(N(CC(=O)NC2CCCCC2)S(=O)(=O)c2c(C)noc2C)cc1` here?
**A.** The z-score was 0.0724.

**Q.** `CCCC(O)(CCN1CCCCC1)c1ccc(OCC)cc1` (stereo not given) was tested. Which z-score did it give?
**A.** Its z-score is 0.811.

**Q.** `O=C(CCS(=O)(=O)c1cc(Br)cc2c1N(C(=O)C1CC1)CC2)NCC1CCCO1` (stereo not given) was tested. Which z-score did it give?
**A.** The z-score was 0.285.

**Q.** For `Cc1nc(C(C)(C)O)n(-c2ccccc2)n1`, which z-score is on record?
**A.** The z-score was -0.0441.

**Q.** With `COCCCNC(=S)NC(=O)c1ccc([N+](=O)[O-])cc1` as the molecule, how does the z-score read?
**A.** Its z-score is 0.847.
